About 5,900 (2.8%) of roughly 210,000 compounds were called active. Inconclusive results, whose numbers are uncertain, are shown with a selection of clear calls. The call rests on the fitted dose curve; in most records, active means well fitted activation curve with a large enough effect; inconclusive means small, poorly fitted or top-dose-only effect; inactive means no such curve, though single readings can be large or run the other way. A potency beside an inconclusive call is a rough fit, not a confirmed value.
Assay: qHTS Assay for Enhancers of SMN2 Splice Variant Expression; further: nearly all actives have a fitted effect of over 55% in size; on activity change, positive = activation: % of control where 0% means no effect
Details: HEK293 SMN2-luciferase splicing reporter, luminescence, 30-36 h; activity change, positive = activation: at 46.1 µM (top of the series)
Procedure, shortened: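 HEK293 cells carry an SMN2 […]–luciferase reporter in which exon 7 inclusion puts luciferase in frame. Cells were plated 10-12 h before compound addition, then incubated 30-36 h at 37C. ONE-Glo luminescence was read; sodium butyrate at 4.5 mM final served as control.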
Potency means the concentration at half of the fitted maximal effect; tags describe the fitted curve by direction and shape.

SMILES | Potency | activity change, positive = activation
CC(C)(C)c1ccc(-c2nnc(SCCN3C(=O)c4ccccc4C3=O)o2)cc1 | inactive | 
COCCn1c(-c2cc(OC)c(OC)c(OC)c2)nc2nc3ccccc3nc21 | inconclusive: 0.251 µM [activator, full curve, poor fit] | 
N#C/C(=C/c1ccc(CNS(=O)(=O)c2ccccc2)o1)C(N)=O | inconclusive: 2.51 µM [activator, full curve, poor fit] | 
COc1cc(C(=O)N(Cc2ccc(C(C)C)cc2)C2CCS(=O)(=O)C2)cc(OC)c1OC (configuration not stated) | inactive | 
COC(=O)C(C)Oc1ccc(-c2nccc(-c3cccs3)n2)cc1 (configuration not stated) | inconclusive: 17.8 µM [activator, single point] | 
COc1ccc(NC(=O)c2cc(-c3ccccc3OC)on2)cc1 | inconclusive: 22.4 µM [activator, single point] | 
Cc1ccc(N/N=C(\C#N)C(=N)N2CCOCC2)cc1 | inconclusive: 0.708 µM [activator, single point] | 
Cc1c(/C=N\NC(=O)C2COc3ccc(C(C)(C)C)cc3O2)c2ccccc2n1C (configuration not stated) | inconclusive: 0.0178 µM [activator, partial curve, poor fit] | 
O=C(Oc1ccc(-c2nccc(-c3ccccn3)n2)cc1)c1cccc(C(F)(F)F)c1 | inconclusive: 35.5 µM [activator, single point] | 
Cc1cc(C(=O)N/N=C/c2cccs2)n[nH]1 | inconclusive: 12.6 µM [activator, single point] | 
CC(C)C(=O)N1CCN(c2ccc(NC(=O)c3ccc([N+](=O)[O-])o3)cc2Cl)CC1 | inactive | 
CCCCn1c(=O)[nH]c2nc3cc(N)ccc3nc2c1=O | inconclusive: 20 µM [activator, single point] | 
Nc1nc(SCC(=O)N2CCc3ccccc3C2)[nH]c(=O)c1-c1ccccc1 | inconclusive: 3.16 µM [activator, partial curve, poor fit] | 
CCc1ccc(OCC(=O)NC(=S)Nc2cccc(CO)c2)c(Br)c1 | active: 12.6 µM | 
COc1cc(-c2cc(C(=O)OCC(=O)Nc3ccc4c(c3)OCO4)c3ccccc3n2)cc(OC)c1OC | inconclusive: 28.2 µM [activator, single point] | 
CCN(CC)c1nc(-c2ccc(C(C)(C)C)cc2)nc2ccccc12 | inconclusive: 35.5 µM [activator, single point] | 
Cc1ccc(/C=N/NC(=O)c2c[nH]c3ccccc23)s1 | active: 12.6 µM | 
O=C(NCc1cccs1)c1ccc2c(c1)OCCO2 | inconclusive: 35.5 µM [activator, single point] | 
Cc1ccccc1-c1nc(-c2ccc(NC(=O)c3ccc(Br)o3)cc2)no1 | inactive | 
COc1ccc(Br)cc1CNCCSc1nnnn1C | inactive | 
Cc1ccc(/C=N/Nc2ccc(Cl)c(C(=O)O)c2)s1 | active: 0.891 µM | 
CC1=C(C(=O)OCC2CCCO2)C(c2cccc(O)c2)NC(=O)N1 (configuration not stated) | inconclusive: 5.62 µM [activator, partial curve] | 
CC1CCN(C(=S)Nc2ccc(SC(F)F)cc2)CC1 | active: 22.4 µM | 

SMILES | Potency | activity change, positive = activation
COc1cccc(NC(=O)CNC(=O)c2ccc(F)cc2)c1 | inconclusive: 35.5 µM [activator, partial curve, poor fit] | 
CC12/C(=N/O)C3C4CC5C3/C(=N/O)C1C5C42 (configuration not stated) | inactive | 
Cc1cc(=O)[nH]c(SCC(=O)N2CCc3ccccc3C2)n1 | inconclusive: 12.6 µM [activator, partial curve, poor fit] | 
COc1ccc(NC(C)=O)cc1NC(=O)CN1CCN(C2c3ccccc3-c3ccccc32)CC1 | inconclusive: 20 µM [activator, single point] | 
O=C1SC(SC(=Nc2ccccc2)Nc2ccccc2)C(=O)N1c1ccccc1 (configuration not stated) | inconclusive: 35.5 µM [activator, single point] | 
COC(=O)c1ccc(COC(=O)CNC(=O)c2ccco2)cc1 | inconclusive: 1.58 µM [activator, partial curve] | 
Cc1ccc(C)c(NC(=O)CSc2c(C)n[nH]c2C)c1 | inconclusive: 0.112 µM [activator, partial curve, poor fit] | 
Cc1[nH]c2ccccc2c1C(=O)CSC(=S)N(C)C | inconclusive: 15.8 µM [activator, single point] | 
CCN(CC(=O)NC1CCCC1)S(=O)(=O)c1ccc(C)cc1 | inconclusive: 0.447 µM [activator, full curve, poor fit] | 
O=C(Nc1ccc(Br)c(Cl)c1)c1ccco1 | inconclusive: 12.6 µM [activator, partial curve, poor fit] | 
CCOc1ccc(OCc2ccc(C(=O)N/N=C(\C)c3ccccn3)cc2)cc1 | inactive | 
CS(=O)(=O)Cc1nc2ccccc2oc1=O |  | inconclusive: 41% [activator]
CCOC(=O)Cn1cnc2c(nnn2Cc2ccc(Cl)cc2)c1=O |  | inconclusive: 38.1% [activator]
Cc1ccc2nc(-c3ccc4c(c3)OCCO4)cc(C(=O)O)c2c1 | inconclusive: 7.94 µM [activator, partial curve, poor fit] | 
COc1ccc(Cc2nn3c(-c4ccccc4OC)nnc3s2)cc1 | inconclusive: 5.62 µM [activator, single point] | 
CNC(=O)NC(=S)NC(=O)c1ccc(OC)cc1 | inactive | 
CC(=C/c1ccc(C(C)C)cc1)/C=N/NC(=O)Cn1nc(C)cc1C | inconclusive: 0.794 µM [activator, single point] | 
CCOC(=O)NC(=O)CSc1nnnn1-c1ccc(Cl)cc1 | inactive | 
O=C(O)c1ccccc1C(=O)Nc1nccs1 | inactive | 
Cc1nc(NC(=O)c2ccccc2[N+](=O)[O-])sc1C(=O)N(C)C | inconclusive: 0.141 µM [activator, full curve, poor fit] | 
CC1=CC(=NOC(=O)c2cccc([N+](=O)[O-])c2)C=C(C)C1=O | inconclusive: 22.4 µM [activator, partial curve, poor fit] | 
N#C/C(=C(/O)CN1CCOCC1)c1nc2ccccc2s1 | inconclusive: 17.8 µM [activator, single point] | 
CS(=O)(=O)N(CCc1ccccc1)CC(=O)N1CCN(Cc2ccc3c(c2)OCO3)CC1 | inactive | 

SMILES | Potency | activity change, positive = activation
Cc1ccn2c(NCc3ccccc3)c(-c3cccs3)nc2c1 | inconclusive: 14.1 µM [activator, partial curve, poor fit] | 
Cc1cc(C)nc(NS(=O)(=O)c2ccc(NC(=O)CN3C(=O)S/C(=C\c4ccccc4)C3=O)cc2)n1 | inconclusive: 0.224 µM [activator, partial curve, poor fit] | 
CCCOC(=O)c1cc2ccccc2oc1=O | inactive | 
CCOc1ccc(N(CC)C(=O)COc2cc(=O)n(CC)c3ccccc23)cc1 | inconclusive: 10 µM [activator, partial curve] | 
O=C(c1ccc([N+](=O)[O-])cc1)N1CCN(C(=O)c2cccs2)CC1 | inconclusive: 17.8 µM [activator, single point] | 
CCC1Sc2ccccc2N(CC(=O)NC2CCCCC2)C1=O (configuration not stated) | inconclusive: 11.2 µM [activator, single point] | 
O=C(Nc1ccccc1)c1ccc2ccccc2n1 | inconclusive: 25.1 µM [activator, single point] | 
Cc1ccc(C)c(N=Cc2ccc(-c3ccc([N+](=O)[O-])cc3)o2)c1 | inconclusive: 0.0355 µM [activator, full curve] | 
COC(=O)c1ccccc1NC(=O)COC(=O)c1ccccc1N=Nc1ccc(N(C)C)cc1 | inconclusive: 8.91 µM [activator, partial curve] | 
COC(=O)c1cc2ccsc2n1Cc1nc(-c2ccc(OC)cc2)oc1C | inconclusive: 25.1 µM [activator, single point] | 
CCCCC(=O)Nc1ccc(NC(=O)C(C)C)cn1 | inconclusive: 5.62 µM [activator, single point] | 
Cc1cccn2cc(CNc3ccccc3)nc12 | active: 22.4 µM | 
O=C(Cc1cccs1)Nc1ccc(Cl)cc1 | inconclusive: 0.794 µM [activator, single point] | 
Cc1ccc(N2C(=O)C3CC(c4ccccc4)=C4C5C=CC(C6C(=O)N(c7ccc(C)cc7C)C(=O)C56)C4C3C2=O)c(C)c1 (configuration not stated) | inconclusive: 5.01 µM [activator, full curve] | 
CN(C)c1nc(-c2cccnc2)nc(-c2ccc(Cl)cc2)c1C#N | inconclusive: 31.6 µM [activator, single point] | 
Cc1ccc(S(=O)(=O)N2CCCOC2CNC(=O)C(=O)NCCc2c[nH]c3ccccc23)cc1 (configuration not stated) | inactive | 
O=c1c2c3c(sc2nc2n1CCCC2)CCCC3 | inconclusive: 35.5 µM [activator, single point] | 
C[C@@H]1CC2(OC[C@]3(C)O[C@H]23)O[C@H]2C[C@@]3(C)[C@@H]4CC[C@H]5C(C)(C)C(O[C@@H]6OC[C@@H](O)[C@H](O)[C@H]6O)CC[C@@]56C[C@@]46CC[C@]3(C)[C@@H]12 (some centres not stated) | inconclusive: 1 µM [activator, full curve, poor fit] | 
O=C(Cc1ccccc1)Nc1nnc(-c2ccco2)s1 | inconclusive: 31.6 µM [activator, partial curve, poor fit] | 
CC(Nc1cc(=O)n(C)c(=O)[nH]1)c1ccccc1 (configuration not stated) | inconclusive: 3.98 µM [activator, full curve, poor fit] | 
O=c1c2c3c(sc2ncn1-n1cccc1)CCCCC3 | inconclusive: 6.31 µM [activator, partial curve, poor fit] | 

From PubChem BioAssay AID1458 (National Center for Advancing Translational Sciences (NCATS), 2008)
